Test results as given in publication PMC4336329 (PLoS ONE, 2015).
Out of some 310,000 compounds screened, about 14,000 (4.5%) showed an effect of 50% or more. Effects have a minus sign here. This is one part of the list.

The molecules below were run against human ether-à-go-go-related gene (hERG) potassium channel (human, UniProt Q12809) (assay: primary screen, population patch clamp on CHO cells stably expressing hERG).
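Note: peak tail current of the secondary pulse compared with the same well before compound.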

Sequence of human ether-à-go-go-related gene (hERG) potassium channel (Q12809 whole entry, looked up): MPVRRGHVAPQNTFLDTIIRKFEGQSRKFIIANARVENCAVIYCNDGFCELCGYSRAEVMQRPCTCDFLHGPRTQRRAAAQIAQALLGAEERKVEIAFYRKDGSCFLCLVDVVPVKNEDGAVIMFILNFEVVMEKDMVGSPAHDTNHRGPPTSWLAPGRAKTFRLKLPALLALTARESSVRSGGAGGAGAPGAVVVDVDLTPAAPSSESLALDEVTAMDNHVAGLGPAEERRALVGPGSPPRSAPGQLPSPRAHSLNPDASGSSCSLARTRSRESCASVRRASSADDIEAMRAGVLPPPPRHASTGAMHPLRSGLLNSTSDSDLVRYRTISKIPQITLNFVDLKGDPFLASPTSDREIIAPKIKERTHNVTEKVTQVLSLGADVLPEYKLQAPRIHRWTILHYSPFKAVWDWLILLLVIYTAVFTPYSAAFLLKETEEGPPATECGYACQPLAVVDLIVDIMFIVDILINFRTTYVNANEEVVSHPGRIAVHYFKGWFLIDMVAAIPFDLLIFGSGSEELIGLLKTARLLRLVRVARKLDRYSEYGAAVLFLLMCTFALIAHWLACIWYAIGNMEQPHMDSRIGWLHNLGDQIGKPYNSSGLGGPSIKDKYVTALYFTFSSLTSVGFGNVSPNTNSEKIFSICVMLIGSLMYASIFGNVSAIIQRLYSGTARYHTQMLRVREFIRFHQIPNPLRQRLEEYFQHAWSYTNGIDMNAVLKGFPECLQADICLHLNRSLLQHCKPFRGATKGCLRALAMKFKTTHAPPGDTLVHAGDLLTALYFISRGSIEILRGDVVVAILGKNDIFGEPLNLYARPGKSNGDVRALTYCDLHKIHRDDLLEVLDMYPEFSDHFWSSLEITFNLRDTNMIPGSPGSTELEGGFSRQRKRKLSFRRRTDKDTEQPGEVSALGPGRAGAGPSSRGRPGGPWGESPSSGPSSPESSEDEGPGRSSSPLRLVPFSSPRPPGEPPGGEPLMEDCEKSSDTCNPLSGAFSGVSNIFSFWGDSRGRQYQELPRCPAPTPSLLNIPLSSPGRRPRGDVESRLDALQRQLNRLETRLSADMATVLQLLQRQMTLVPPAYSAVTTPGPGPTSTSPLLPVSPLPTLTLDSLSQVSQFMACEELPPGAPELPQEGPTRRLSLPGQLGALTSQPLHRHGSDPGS

Row | Structure (SMILES) | hERG current change (%, negative = inhibition) at 10uM [%]
1 | O=C1CCCN1c1ccc(S(=O)(=O)NCc2ccc(F)cc2)cc1 | 2.94
2 | CCOC(=O)CCP(=O)(O)C(O)(c1ccccc1)c1ccccc1 | 0.636
3 | Cc1nc(N2CCN(C(=O)c3ccco3)CC2)nc2c1C(=O)CCC2 | 2.17
4 | CC1CCCN(C(=O)CCNS(=O)(=O)c2ccc(Br)cc2)C1 (stereo not shown) | -32.2
5 | CC1CCN(CCCN2C(=O)C3C(C(=O)Nc4ccc(Cl)cc4)C4C=CC3(O4)C2C(=O)NC2CCCCC2)CC1 (stereo not shown) | -34.5
6 | Cc1ccc(NC(=O)c2ccc3c(c2)OCCO3)cc1C | -10.4
7 | Cc1cc(C)nc(N2CCCC(C(=O)Nc3nnc(C(C)(C)C)s3)C2)n1 (stereo not shown) | 19.6
8 | CN(C(=O)CSc1nc(C2CC2)nc2ccccc12)c1nc(-c2ccccc2)cs1 | 2.14
9 | CCCn1cc(S(=O)(=O)CC(=O)NC2CCCCC2)c2ccccc21 | -2.51
10 | CCN(CCO)c1nc(SC)nc2c1sc1nc(-c3ccco3)c3c(c12)CCC3 | 2.11
11 | CC(Oc1cc(F)ccc1[N+](=O)[O-])C(=O)N(C)CC(=O)Nc1ccccc1C(F)(F)F (stereo not shown) | 6.24
12 | CC1(c2ccc3ccccc3c2)NC(=O)N(CC(N)=O)C1=O (stereo not shown) | 15.5
13 | CCOc1ccc(C(=O)C2CCN(CC(=O)Nc3ccccc3N3CCOCC3)CC2)cc1 | -53.6
14 | CCOC(=O)Cc1csc(NC(=O)CSc2nnc(-c3ccc(NS(=O)(=O)CC)cc3)o2)n1 | -3.35
15 | O=C(NNc1nc(-c2ccccc2)cs1)c1cccs1 | 10.7
16 | O=C(NCc1nc2ccccc2[nH]1)C1=C[C@H](c2ccc(C(F)(F)F)cc2)C[C@H](OCc2ccc(CO)cc2)O1 | 9.06
17 | CCOC(=O)NNC(=O)c1[nH]c2ccc(Br)cc2c1-c1ccccc1 | 4.86
18 | CCOC(=O)C1(CCOc2ccccc2)CCN(Cc2ccc(C#CCCO)cc2)CC1 | -53.3
19 | CC1=C(C(=O)N2CCOCC2)C(c2ccc(O)cc2)NC(=S)N1 (stereo not shown) | 18.5
20 | O=C(N/C(=N\O)c1ccccc1)Nc1ccc(Cl)cc1 | -27.7
21 | Cc1cc(C)c2c(c1)/C(=C/C(=O)c1ccc(Br)s1)C(=O)N2 | 26
22 | COc1ccc(C(=O)/C=C/c2cccs2)c(OC(=O)N2CCOCC2)c1 | -2.94
23 | CCCCNc1c(-c2cccc(-c3cc(C(C)=O)cs3)c2)nc2cc(C)ccn12.O=C(O)C(F)(F)F | -18.2
24 | O=C(CSc1nnc(Nc2ccccc2)s1)NCC1CCCO1 (stereo not shown) | -1.51
25 | COC(=O)CCCNC(=O)c1ccc(OS(=O)(=O)c2cc([N+](=O)[O-])ccc2C)cc1 | -3.31
26 | COc1ccc(/C(C)=N/NC(=O)c2ccc3nc[nH]c3c2)cc1 | 11
27 | CCC(CC)NC(=O)CCCSc1nc2ccccc2[nH]1 | 22.3
28 | Cc1cc(OCC(O)CN(CCO)CCO)ccc1Cl.Cl (stereo not shown) | 5.23

Row | Structure (SMILES) | hERG current change (%, negative = inhibition) at 10uM [%]
29 | CC(C)(C)OC(=O)N[C@@H](Cc1ccccc1)C(=O)N1CCC(C(=O)N[C@@H](Cc2c[nH]c3ccccc23)C(=O)O)CC1 | 21.9
30 | CN1CCC(=O)N(CCSc2ccc(Br)cc2)CC1 | -25.5
31 | Cc1ccccc1NC(=S)NCC(c1cccnc1)N1CCOCC1 (stereo not shown) | -4.07
32 | Cl.Cn1c(SCc2ccccc2)nnc1C1CCCNC1 (stereo not shown) | 11.5
33 | CCOC(=O)N1CCN(C(=O)c2cccc(F)c2)CC1 | -17.9
34 | COC(=O)[C@@H](Cc1c[nH]c2ccccc12)NC(=O)C1CCCN(S(=O)(=O)c2ccc(C)cc2)C1 (stereo partly shown) | -16.8
35 | CCOC(=O)c1ccc(CNC(=O)C2CCCCC2C(=O)OCC(F)(F)F)o1 (stereo not shown) | 3.36
36 | COc1ccccc1C(=O)COC(=O)CNS(=O)(=O)c1ccc(C)cc1 | -9.78
37 | CC(C(=O)Nc1ccc(Cl)cc1Cl)N1CC=C(c2ccccc2)CC1 (stereo not shown) | -28.1
38 | N#Cc1cnn(-c2ccc(F)cc2)c1N | 20.1
39 | CCCCNC(=O)c1cc2cc(CC)ccc2[nH]1 | -5.12
40 | O=C(CC(=O)N/N=C\c1ccccc1)NCCc1ccccc1 | 10
41 | COc1ccc(OC)c2[nH]c(=O)c(CCNC(=O)C(=O)c3c[nH]c4ccccc34)cc12 | 23.4
42 | CCOC(=O)CSc1n[nH]c(NC(=O)c2cccc(C(F)(F)F)c2)n1 | -7.55
43 | CC1(C)C2CCC1(CS(=O)(=O)Nc1ccccc1)C(=O)C2 (stereo not shown) | -5.84
44 | Cc1ccc2c(CN3CCN(S(=O)(=O)c4ccccc4C(F)(F)F)CC3)cc(=O)oc2c1C | -5.49
45 | Cc1ccc(Cc2nnc(SCC(=O)Nc3ccccc3)n(N)c2=O)cc1 | 3.39
46 | Cc1cc(N)n2ncc(-c3ccc(Cl)cc3)c2n1 | 1.93
47 | CC(=O)c1ccc(NS(=O)(=O)Cc2ccc(Cl)cc2)cc1 | -9.47
48 | COc1ccc(NC(=O)CN(C)C(=O)c2ccccc2CCc2ccccc2)cc1 | -0.925
49 | CC(C)CC(=O)NC(=S)NNC(=O)c1ccc([N+](=O)[O-])cc1 | -29.5
50 | O=C(CSc1nc(C(F)(F)F)cc(=O)[nH]1)N1CCCCCC1 | 1.22
51 | CCc1ccccc1NC(=O)C1COc2ccccc2O1 (stereo not shown) | 21.7
52 | Cc1ccc(-c2nc(CS(=O)(=O)CC(=O)NC3CCCCCC3)c(C)o2)cc1 | 6.25
53 | O=C(NCc1cccnc1)c1ccc(COc2ccccc2Cl)o1 | -5.89
54 | O=C(NNC(=O)c1cccnc1Cl)c1ccc(F)cc1 | 10.7
55 | NC(=O)N=Nc1c2[nH]c3ccccc3nc-2c2ccccc12 | 4.3
